Among all 410,000 compounds or so, about 310 (0.076%) were called active. Inconclusive means that the source gave no clear call. Such entries were picked first, then a sample of the others. Calls come from the whole dose curve; as a rule, active = well fitted curve in the direction sought with a large enough effect; inconclusive = small, poorly fitted or top-dose-only effect; inactive = flat fitted curve, though single readings scatter. Potencies beside an inconclusive call are fits to weak or partial responses and may not hold up.
target: DNA dC->dU-editing enzyme APOBEC-3G (Homo sapiens) (UniProt Q9HC16); assay: qHTS for Inhibitors of Vif-A3G Interactions: qHTS; conditions: HeLa A3G-eYFP + Vif (tagged APOBEC3G with the HIV-1 protein that degrades it), YFP fluorescence, overnight; series mostly up to 46.1 µM; activity, negative = active: at the top concentration; note: nearly all actives have a fitted effect of over 60% in size;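 for activity, negative = active: hits raise eYFP signal because A3G escapes Vif-driven loss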
Description: The recent discovery and characterization of host restriction factors, which provide a potent defense to invading retroviruses, has provided new targets for antiviral drug development. APOBEC3G (A3G) and APOBEC3F (A3F) are potent cytidine deaminases that block HIV-1 replication; HIV-1 expresses the Vif protein, which counteracts A3G and A3F by binding to them and inducing their proteasomal degradation. The Vif-A3G and Vif-A3F interactions provide two potential targets for development of small molecules which can interfere with the ability of Vif to degrade A3G or A3F. […] To identify inhibitors that can interfere with Vif mediated degradation of A3G and A3F, we have developed Hela cell lines that stably express A3G or A3F tagged with eYFP at the C-terminal end (A3G-eYFP or A3F-eYFP, respectively) and Vif. In the absence of an inhibitor, Vif induces degradation of A3G-eYFP and A3F-eYFP, and the cells are not fluorescent. In the presence of an inhibitor, it is expected that Vif will be unable to degrade A3G-eYFP and/or A3F-eYFP, resulting in an increase in yellow fluorescence. In this assays Vif A3G was screened against the Molecular Library Small Molecule Repository (MLSMR). NIH Chemical Genomics Center [NCGC] NIH Molecular Libraries Probe Centers Network [MLPCN] MLPCN Grant: MH093245 Assay Submitter (PI): Vinay Pathak, National Cancer Institute
5 uL of 700 cells/well of A3G-YFP cells are dispensed into black, clear bottom plates. The plates are incubated overnight at 37 deg C. 23 nL of compounds are added by pintool. The plates are incubated overnight at 37 deg C and then read on the TTP Acumen (Ex 488/ Em 500-530).
% is set by controls: 0 for no effect and ±100 for the full control effect; potency is the fitted concentration of half-maximal effect; tags give direction and shape of the fitted curve.

Chain of UniProt Q9HC16 (Q9HC16 whole entry, looked up): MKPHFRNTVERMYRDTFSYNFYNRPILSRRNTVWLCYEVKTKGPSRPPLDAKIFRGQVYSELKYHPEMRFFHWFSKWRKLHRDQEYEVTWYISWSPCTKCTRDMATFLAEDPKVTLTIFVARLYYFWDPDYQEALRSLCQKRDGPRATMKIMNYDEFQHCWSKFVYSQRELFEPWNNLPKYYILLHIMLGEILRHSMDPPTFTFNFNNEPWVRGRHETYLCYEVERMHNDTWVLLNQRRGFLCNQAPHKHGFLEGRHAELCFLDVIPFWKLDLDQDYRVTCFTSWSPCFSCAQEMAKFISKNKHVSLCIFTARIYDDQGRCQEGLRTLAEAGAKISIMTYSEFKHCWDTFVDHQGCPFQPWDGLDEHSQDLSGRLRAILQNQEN

SMILES | Potency | activity, negative = active
Cc1ccc(NC(=O)CS(=O)CC(=O)Nc2ccccc2-c2ccc(C)o2)cc1 (stereo not given) | inconclusive: 35.5 µM [inhibitor, single point] | 
Cc1ccc(Nc2nc(Cl)c(C=O)s2)cc1Cl | inconclusive: 15.8 µM [inhibitor, partial curve, poor fit] | 
CCOc1ccc(N(CC(=O)Nc2ccccc2Cl)S(C)(=O)=O)cc1 | inconclusive: 11.2 µM [inhibitor, partial curve, poor fit] | 
Cc1nc(SCc2nc3cc(Cl)c(F)cc3[nH]2)c2oc3ccccc3c2n1 | inconclusive: 35.5 µM [inhibitor, single point] | 
Cc1cc(C)n2nc(CNC(=O)c3c(F)cccc3F)nc2n1 |  | inactive: 4.4%
COc1ccc(OC)c(NS(=O)(=O)c2ccc(-n3cccn3)cc2)c1 | inconclusive: 11.2 µM [inhibitor, partial curve] | 
COc1ccc(NC(=O)CN(C)C(=O)C2CCCO2)cc1 (stereo not given) |  | inactive: 1.61%
COc1cc(CN2CCc3ccccc3C2)ccc1O | inconclusive: 35.5 µM [inhibitor, single point] | 
O=C(/C=C/c1ccco1)NC(=S)Nc1ccc(N2CCCC2)cc1 | inconclusive: 10 µM [inhibitor, partial curve] | 
O=c1[nH]ncc2c3ccccc3n(Cc3cccc(Cl)c3)c12 | inconclusive: 11.2 µM [inhibitor, partial curve] | 
COc1ccc(C(CC(=O)c2ccc3c(c2)OCO3)C(=O)O)cc1OC (stereo not given) |  | inactive: 3.62%
COc1cc(C(=O)N2CCN(c3ccc(C)cc3C)CC2)cc(OC)c1OC | inconclusive: 1.26 µM [inhibitor, full curve, poor fit] | 
Fc1ccc(Nc2nc(Oc3ccccc3F)nc(N3CCCC3)n2)cc1 |  | inactive: 0.674%
CC(C)(C)OC(=O)N1CCCC1C(=O)NC1COC2CC(n3ccc(=O)[nH]c3=O)OC12 (stereo not given) |  | inactive: -0.184%
CCOc1cc(C(=O)OCC(=O)c2cc(C)n(CC3CCCO3)c2C)ccc1OCC(=O)N1CCOCC1 (stereo not given) | inconclusive: 2.82 µM [inhibitor, full curve] | 
Cc1ccc(N=Nc2c(O)[nH]c3ccc(F)cc23)cc1 | inconclusive: 35.5 µM [inhibitor, single point] | 
CCCC1=Nc2cc(C(=O)NCc3ccco3)ccc2Sc2ccccc21 | inconclusive: 1.41 µM [inhibitor, full curve, poor fit] | 
COc1ccc(-c2nc(SCC(=O)Nc3ccc4c(c3)OCCO4)c(-c3ccc(F)cc3)[nH]2)cc1 | inconclusive: 20 µM [inhibitor, single point] | 
CC(C)CN1CCN(C(=O)COC(=O)c2ccc(S(C)(=O)=O)c([N+](=O)[O-])c2)CC1 | inconclusive: 25.1 µM [inhibitor, single point] | 
COC(=O)CCC(=O)NC(=S)Nc1sc(C)c(C)c1C(N)=O | inconclusive: 0.891 µM [inhibitor, full curve, poor fit] | 
CCc1ccc2nc(N(CCN(CC)CC)C(=O)c3cccs3)sc2c1 |  | inactive: 3.45%
O=C(NCc1cccnc1)c1cc(-c2ccco2)on1 |  | inactive: 2.36%

SMILES | Potency | activity, negative = active
CCOC(=O)c1cnc(Nc2nc3ccccc3o2)nc1CN1CCN(C)CC1 | inconclusive: 35.5 µM [inhibitor, single point] | 
Clc1ccccc1-c1nnc2sc(-c3ccc4c(c3)OCO4)nn12 | inconclusive: 3.98 µM [inhibitor, full curve] | 
COc1ccc(-c2cc(C(=O)NN)[nH]n2)cc1 | inconclusive: 20 µM [inhibitor, single point] | 
CSc1ccc(Cl)c(C(=O)Nc2ccc(C)cn2)c1 | inconclusive: 22.4 µM [inhibitor, single point] | 
COc1ccc(/C=N/NC(=O)c2sc(C)nc2C)cc1 | inconclusive: 35.5 µM [inhibitor, single point] | 
Cc1cccc(CS(=O)(=O)c2ncc(Cl)c(C(=O)Nc3nnc(C(C)C)s3)n2)c1 | inconclusive: 10 µM [inhibitor, partial curve, poor fit] | 
Nc1ccc2c(c1)C(=O)c1ccc(N)cc1-2 |  | inactive: 3.88%
O=C(Cn1nc(-c2ccc(Cl)cc2)c2ccccc2c1=O)NCC1CCCO1 (stereo not given) |  | inactive: 1.68%
Cc1cc(C)n(-c2nc(C)c(C)c(=O)n2CC(=O)Nc2ccc([N+](=O)[O-])cc2)n1 |  | inactive: 2.17%
C#CCOCCOCCOCCNc1nc(N2CCN(C(=O)CCCCCCCCCCNC(=O)[C@@H](CCSC)n3cc(CCO)nn3)CC2)nc(N2CCN(C(=O)CCCCCCCCCCNC(=O)[C@H](CCCN=C(N)N)n3cc(C[C@@H](C)CC)nn3)CC2)n1 | inconclusive: 31.6 µM [inhibitor, single point] | 
Cc1cc(NC(=O)CSc2nnc(-c3ccccc3)c(-c3ccccc3)n2)no1 | inconclusive: 2.24 µM [inhibitor, full curve, poor fit] | 
CCOc1ccccc1NC(=S)N1CCN(c2cccc(OC)c2)CC1 | inconclusive: 35.5 µM [inhibitor, single point] | 
COc1ccc2c(n1)Sc1nc3ccccc3nc1N2 | inconclusive: 3.16 µM [inhibitor, full curve, poor fit] | 
C=C1C(=O)O[C@@H]2[C@H]1[C@@H](OC(=O)/C(C)=C/C)C/C(C)=C\C(=O)/C=C(\C)[C@@H]2O | inconclusive: 3.16 µM [inhibitor, full curve, poor fit] | 
CC(=O)N/N=C/c1cc(C(C)(C)C)cc(/C=N/NC(C)=O)c1O | active: 12.6 µM | 
COc1cc(NC(=O)c2cccs2)c(C(=O)OCC(=O)NCc2ccccc2)cc1OC | inconclusive: 3.98 µM [inhibitor, single point] | 
COc1ccc(-c2csc(N(CCCN3CCOCC3)C(=O)c3ccco3)n2)cc1 |  | inactive: -19.6%
COc1ccc(C(=O)C(CN2CCCC2)c2ccccc2)cc1 (stereo not given) | inconclusive: 22.4 µM [inhibitor, single point] | 
O=C(CCl)N1CCN(C(=O)C2COc3ccccc3O2)CC1 (stereo not given) | inconclusive: 25.1 µM [inhibitor, partial curve, poor fit] | 
COc1cc(OC)cc(C(=O)N[C@H](C(=O)N2CCc3ccccc32)C(C)C)c1 | inconclusive: 35.5 µM [inhibitor, partial curve, poor fit] | 
Cc1ccc(S(=O)(=O)Nc2ccc3c4c(cccc24)CC3)c(C)c1 | inconclusive: 3.55 µM [inhibitor, partial curve, poor fit] | 
COc1cc(C(=O)NCc2ccc3c(c2)CCN3C(=O)c2ccncc2)cc(OC)c1OC |  | inactive: 2.63%

SMILES | Potency | activity, negative = active
C/C(=N\NC(=O)COc1ccc(C)cc1Br)c1cc([N+](=O)[O-])cs1 |  | inactive: 0.833%
COc1ccc(/C=N/NC(=O)c2cc(OC)c(OC)c(OC)c2)cc1CN1CCc2cc(OC)c(OC)cc2C1C (stereo not given) | inconclusive: 15.8 µM [inhibitor, partial curve, poor fit] | 
O=c1c(Cl)c(N/N=C/c2ccc(Cl)cc2)cnn1-c1ccccc1 | inconclusive: 25.1 µM [inhibitor, single point] | 
Cc1cccc(-c2cc3c(nn2)-c2ccccc2C3=O)c1 | inconclusive: 35.5 µM [inhibitor, single point] | 
CCOC(=O)c1c(C=O)c(C)n(Cc2ccc(C)cc2)c1C | inconclusive: 12.6 µM [inhibitor, single point] | 
COc1cccc(N/C(SC)=C(/C#N)C(N)=O)c1 | inconclusive: 35.5 µM [inhibitor, single point] | 
CCc1ccc(-c2csc(NC(=O)C3CC(=O)N(c4ccc5c(c4)OCCO5)C3)n2)cc1 (stereo not given) | inconclusive: 11.2 µM [inhibitor, partial curve, poor fit] | 
CCOC(=O)C(C)NC(=O)c1cn(-c2ccc(OC)cc2)c(=O)c2ccccc12 (stereo not given) |  | inactive: 2.51%
Cc1ccnc(NC(=O)Nc2ccc(Br)cc2Cl)c1 | inconclusive: 5.62 µM [inhibitor, single point] | 
C=C(C)C(=O)OC1(C(F)(F)F)Oc2cc(C)ccc2NC1=O (stereo not given) | inconclusive: 14.1 µM [inhibitor, single point] | 
O=C(Nc1ccc(Cl)cc1Cl)c1cccc(N2C(=O)C=CC2=O)c1 | inconclusive: 22.4 µM [inhibitor, single point] | 
O=C(Nc1nc2c(s1)CCc1ccccc1-2)c1cccs1 | inconclusive: 11.2 µM [inhibitor, single point] | 
COc1ccc(C(=O)/C=C/c2cn(CC(O)CN(CC(C)C)CC(C)C)c3ccccc23)cc1OC (stereo not given) | inconclusive: 35.5 µM [inhibitor, single point] | 
CCOC(=O)N1CCN(C(=O)c2cc(-c3ccncc3)nc3ccccc23)CC1 | inconclusive: 10 µM [inhibitor, partial curve] | 
COCCN(Cc1nc2ccccc2c(=O)[nH]1)C(=O)COc1ccccc1-c1ccccc1 | inconclusive: 10 µM [inhibitor, partial curve, poor fit] | 
CCOC(=O)c1nnn(-c2nonc2N)c1-c1cccc2ccccc12 | inconclusive: 25.1 µM [inhibitor, single point] | 
O=c1oc2ccc(Cl)cc2cc1-c1nc(-c2cccs2)no1 |  | inactive: 3.92%
Cc1ccccc1N=C1c2cc([N+](=O)[O-])ccc2-c2ncccc21 |  | inactive: -5.85%
Cn1nc(C(=O)NNC(=O)C(CCC(N)=O)NS(=O)(=O)c2ccc(Cl)cc2)c2ccccc2c1=O (stereo not given) | inconclusive: 5.01 µM [inhibitor, full curve, poor fit] | 
CC(=O)Nc1ccc(NC(=O)c2ccccc2Br)cc1 |  | inactive: -2.68%
CCCC(C)c1nnc(NC(=O)CCS(=O)(=O)Cc2ccccc2)s1 (stereo not given) |  | inactive: -3.41%

Source: PubChem BioAssay AID602310 (National Center for Advancing Translational Sciences (NCATS), 2012)
